Laboratory results reported in PubChem BioAssay AID1347073 (National Center for Advancing Translational Sciences (NCATS), 2019).
In all, about 45,000 compounds went through this assay and about 200 (0.44%) were called active. Inconclusive results (about 7%) are left out. The call rests on the fitted dose curve; in most records, active means well fitted activation curve with a large enough effect; inconclusive means small, poorly fitted or top-dose-only effect; inactive means no such curve, though single readings can be large or run the other way. The list shows a part of the results.
Potency means the concentration at half of the fitted maximal effect.

Assay: qHTS of TDP-43 Inhibitors: NCGC Sytravon Library Screen; further: nearly all actives have a fitted effect of over 55% in size; on growth rescue (activation): 0% is about no effect
Conditions: yeast TDP-43 toxicity rescue, BacTiter-Glo growth, 24 h; series mostly up to 46.1 µM; growth rescue (activation): at the top concentration
Outline: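 TDP-43-expressing yeast, pregrown in raffinose, seeded at OD600 0.02 in galactose medium with compound for 24 hr at 30 deg C. Growth read by BacTiter-Glo luminescence, so rescue of toxicity appears as activation.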
For `CC(=O)Nc1ccc(S(=O)(=O)Nc2ccc3c(c2)OCCO3)cc1`, the “growth rescue (activation)” value was inactive: -4.61%.
In the case of `COc1ccc(OCC(=O)Nc2cc(S(=O)(=O)N3CCCCC3)ccc2OC)cc1`, the “growth rescue (activation)” value is reported as inactive: 20.9%.
With `O=C(CCC1CCCN(C(=O)c2ccc3c(c2)OCO3)C1)N1CCN(c2ccccn2)CC1` (stereo not given) the “growth rescue (activation)” value was inactive: 0.842%.
For `Cc1ccc2nc(-c3ccc(N4C(=NC(=O)CCC(=O)O)SC5CS(=O)(=O)CC54)cc3)sc2c1` (stereo not given), the “growth rescue (activation)” value was inactive: 18.2%.
For `N/C(=N\OC(=O)c1ccc([N+](=O)[O-])cc1)c1cccnc1`, the “growth rescue (activation)” value was inactive: -7.61%.
With `O=C(NS(=O)(=O)Oc1cccc(F)c1)OC[C@@H]1CCCN2CCCCC12` (stereo not given in full) the “growth rescue (activation)” value was inactive: 1.07%.
For `CC1CCCN(CCCN2C(=O)C3C(C(=O)Nc4ccc(Cl)cc4)C4C=CC3(O4)C2C(=O)NC2CCCCC2)C1` (stereo not given), the “growth rescue (activation)” value was inactive: 0.903%.
For `COc1ccc(N2C(=S)NC3c4cc(Cl)ccc4OC2(C)C3C(=O)N(C)C)cc1` (stereo not given), the “growth rescue (activation)” value was inactive: 5.78%.
With `Cc1c(C(=O)Nc2ccc(Cc3ccncc3)cc2)cccc1[N+](=O)[O-]` the “growth rescue (activation)” value was inactive: 0.931%.
For `CCOC(=O)c1ccc(CC2SC(N)=NC2=O)cc1` (stereo not given), the “growth rescue (activation)” value was inactive: -10.5%.
With `Fc1ccc2nc(N3CCCCC3)sc2c1` the “growth rescue (activation)” value was inactive: -4.39%.
In the case of `COc1ccccc1C(=O)NCCC(=O)NC1CCCCCC1`, the “growth rescue (activation)” value is reported as inactive: 10.3%.
In the case of `O=C(NC(=S)NCc1ccccc1)c1cccnc1`, the “growth rescue (activation)” value is reported as inactive: 7.58%.
In the case of `COCCNc1nc(NCc2ccc(NC(C)=O)cc2)c2sccc2n1`, the “growth rescue (activation)” value is reported as inactive: -1.15%.
For `COc1ccc(NC(=O)c2oc3ccccc3c2CSC)cc1S(=O)(=O)N1CCOCC1`, the “growth rescue (activation)” value was inactive: 2.71%.
With `CC(=O)OCC(=O)Nc1ccccc1C` the “growth rescue (activation)” value was inactive: 4.11%.
With `Cc1ccc(CN(C)C(=O)c2c(C)nn(-c3ccccc3)c2C)cc1` the “growth rescue (activation)” value was inactive: 2.94%.
In the case of `Nc1nc(-c2ccccc2)c(N=Nc2ccccc2Cl)s1`, the “growth rescue (activation)” value is reported as inactive: 0.638%.
In the case of `COc1ccc(C)cc1NC(=O)c1ccc(CN2CCc3ccccc3C2)cc1`, the “growth rescue (activation)” value is reported as inactive: 6.99%.
For `COc1ccccc1C(=O)NC(=O)CSc1nc2nc(C)cc(C)n2n1`, the “growth rescue (activation)” value was inactive: 18%.
For `O=C1C(Cc2ccccc2)SC(=Nc2ccccc2)N1c1ccccc1` (stereo not given), the “growth rescue (activation)” value was inactive: 10.9%.
For `Cn1cccc1C(=O)NCc1ccc(Cl)cc1`, the “growth rescue (activation)” value was inactive: 26.6%.
For `O=C(Nc1cccc(Cl)c1Cl)c1csc([C@@H]2O[C@H](CO)[C@@H](O)[C@H]2O)n1`, the “growth rescue (activation)” value was inactive: 0.463%.
In the case of `O=C(Cc1ccc(Br)cc1)OCC(=O)N1CCCCCC1`, the “growth rescue (activation)” value is reported as inactive: 24.2%.
For `COc1ccc(CNC(=O)C(CCSC)NS(=O)(=O)c2ccccc2F)cc1` (stereo not given), the “growth rescue (activation)” value was inactive: 16.3%.
With `CC1CN(C2=N/C(=C/c3ccc4c(c3)OCO4)C(=O)N2)CC(C)O1` (stereo not given) the “growth rescue (activation)” value was inactive: 1.7%.
For `Nc1nnc(SCC(=O)OCc2ccc(F)cc2)s1`, the “growth rescue (activation)” value was inactive: -12.9%.
For `CCOC(=O)NC(=O)CSc1ccc(C)cc1C`, the “growth rescue (activation)” value was inactive: 22.6%.
With `Cc1cnc(NC(=O)C2(C)CCN2C(=O)C(C)C)s1` (stereo not given) the “growth rescue (activation)” value was inactive: 5.36%.
With `O=C(NNc1c2ccccc2nc2ccccc12)c1ccccc1O` the “growth rescue (activation)” value was inactive: 3.96%.
For `Cn1nc(C(=O)NCC(c2cccs2)N2CCOCC2)c2ccccc2c1=O` (stereo not given), the “growth rescue (activation)” value was inactive: -10.3%.
For `O=C1c2ccccc2C2(c3ccc(F)cc3)NCCN12` (stereo not given), the “growth rescue (activation)” value was inactive: 3.68%.
In the case of `CCCn1c(C(C)C)n[nH]c1=S`, the “growth rescue (activation)” value is reported as inactive: -2.65%.
With `CCC(C)(C)NC(=O)C(c1cccn1C)N(C(=O)Cn1nnc2ccccc21)c1ccccc1OC` (stereo not given) the “growth rescue (activation)” value was inactive: 14.8%.
For `CCCOc1ccc(C(=O)Nc2ccc(NC(=O)c3cccs3)cc2)cc1`, the “growth rescue (activation)” value was inactive: 7.71%.
In the case of `O=C1CSC(c2cn(-c3ccccc3)nc2-c2ccccc2)N1Cc1ccco1` (stereo not given), the “growth rescue (activation)” value is reported as inactive: 0.915%.
In the case of `Cc1ccc(S(=O)(=O)N2CCN(C(C)C(=O)NCC(C)c3ccccc3)CC2)cc1` (stereo not given), the “growth rescue (activation)” value is reported as inactive: 18.1%.
With `CCOc1ccc(CNc2ccc(S(N)(=O)=O)cc2)cc1` the “growth rescue (activation)” value was inactive: -21.2%.
For `CCNC(=O)C1(C)CCCN(Cc2csc(-c3ccccc3)n2)C1` (stereo not given), the “growth rescue (activation)” value was inactive: 21.7%.
For `Cn1c(SCC(=O)N/N=C/C=C/c2ccccc2[N+](=O)[O-])nc2ccccc21`, the “growth rescue (activation)” value was inactive: 17.2%.
For `CC(C)CCc1noc(CN2CCN(CC(=O)NC(C)C)CC2)n1`, the “growth rescue (activation)” value was inactive: 21.1%.
For `COc1ccc(CCNC(=O)CSc2nnnn2Cc2ccc3c(c2)OCO3)cc1OC`, the “growth rescue (activation)” value was inactive: -28.8%.
For `COCCn1c(C)cc(C(=O)COC(=O)/C=C/c2ccc(OC)cc2OC)c1C`, the “growth rescue (activation)” value was inactive: 15.3%.
In the case of `CCN=C1S/C(=C\c2cn(CC(=O)NCc3ccco3)c3ccccc23)C(=O)N1CC`, the “growth rescue (activation)” value is reported as inactive: 20.3%.
With `CN(Cc1ccncn1)C(=O)CC1C(=O)NCCN1Cc1cccc(Oc2ccccc2)c1` (stereo not given) the “growth rescue (activation)” value was inactive: 5.64%.
For `COc1ccc(CC(=O)NC2CCSc3ccccc32)c(OC)c1` (stereo not given), the “growth rescue (activation)” value was inactive: 27.5%.
In the case of `N#CC1=C(N)Nc2nc3ccccc3n2C1c1ccc(Cl)cc1` (stereo not given), the “growth rescue (activation)” value is reported as inactive: 11.3%.
With `OCC1CCN(Cc2nc(Cc3ccccc3Cl)no2)CC1` the “growth rescue (activation)” value was inactive: 0.263%.
With `O=C1CCC(=O)N1N1C(=O)C2C3c4ccccc4C(c4ccccc43)C2C1=O` (stereo not given) the “growth rescue (activation)” value was inactive: 0.461%.
With `O=C(CN1C(=O)NC2(CCCCCCC2)C1=O)NCc1cccs1` the “growth rescue (activation)” value was inactive: 18%.
For `COc1ccccc1N/C(N)=N/c1nc(C(F)(F)F)cc(=O)[nH]1`, the “growth rescue (activation)” value was inactive: 11%.
For `COc1ccccc1NS(=O)(=O)c1cc(NC(=O)c2ccncc2)ccc1N1CCOCC1`, the “growth rescue (activation)” value was inactive: 4.68%.
For `Cc1cccc(Nc2nnc(SCC(=O)Nc3ccccc3[N+](=O)[O-])s2)c1C`, the Potency was active: 17.8 µM.
With `O=CN1CCN(S(=O)(=O)c2ccc(Cl)c(C(=O)O)c2)CC1` the “growth rescue (activation)” value was inactive: -1.87%.
For `COc1cccc(C(=O)C2CCCN(Cc3cccn3-c3cccnc3)C2)c1` (stereo not given), the “growth rescue (activation)” value was inactive: 5.75%.
In the case of `CC(=O)c1cccc(CN2CCC(n3nccc3NC(=O)c3ccc4c(c3)OCO4)CC2)c1`, the “growth rescue (activation)” value is reported as inactive: 14.8%.
With `COc1cccc(NC(=O)COC(=O)c2sccc2C)c1` the “growth rescue (activation)” value was inactive: 26.9%.
With `O=C1NC2=C(C(=O)CCC2)C(c2ccccc2[N+](=O)[O-])N1` (stereo not given) the “growth rescue (activation)” value was inactive: 14%.
In the case of `NS(=O)(=O)c1ccc(CNc2ncnc3sccc23)cc1`, the “growth rescue (activation)” value is reported as inactive: 14.7%.
With `COC(=O)c1cc(C(C)=O)c(C)[nH]c1=O` the “growth rescue (activation)” value was inactive: 11.9%.
In the case of `NS(=O)(=O)c1cccc(NC(=O)CC23CC4CC(CC(Br)(C4)C2)C3)c1`, the “growth rescue (activation)” value is reported as inactive: -7.42%.
With `O=C(NCCNC(=O)c1ccccn1)c1ccccc1` the “growth rescue (activation)” value was inactive: 1.86%.
In the case of `CCCCOc1ccc(NC(=O)CSc2cccc3cccnc23)cc1`, the “growth rescue (activation)” value is reported as inactive: 20.1%.
For `Cc1ccc(NS(=O)(=O)c2cccc(C(=O)NNC(=O)NC3CCCCC3)c2)c(C)c1`, the “growth rescue (activation)” value was inactive: 14.7%.
For `COc1ccccc1C(=O)OCc1nc(N)nc(Nc2ccccc2C)n1`, the “growth rescue (activation)” value was inactive: 7.37%.
For `CCOC(=O)C1(CCCc2ccccc2)CCN(C(=O)CCN2CCCCC2=O)CC1`, the “growth rescue (activation)” value was inactive: 8.42%.
In the case of `Cc1ccc(-n2nnnc2SCC(=O)Nc2cccnc2Cl)cc1`, the “growth rescue (activation)” value is reported as inactive: -3.33%.
With `CCCCN1C=CC(=C2C(=O)c3ccccc3C2=O)C=C1` the “growth rescue (activation)” value was inactive: -30.3%.
With `Cc1occc1-c1n[nH]c(=S)n1-c1ccccc1` the “growth rescue (activation)” value was inactive: 11.5%.
With `CCOC(=O)C(NC(=O)Nc1ccc(C(N)=O)cc1)(c1ccccc1)C(F)(F)F` (stereo not given) the “growth rescue (activation)” value was inactive: 14.9%.
